Source: PMC4336329 (PLoS ONE, 2015)
The campaign covered roughly 310,000 compounds. About 2,200 (0.71%) showed an effect of 50% or more. Effects have a minus sign here. Some of the results follow.

Target: human ether-à-go-go-related gene (hERG) potassium channel (human, UniProt Q12809)
Experiment: primary screen, population patch clamp on CHO cells stably expressing hERG

Sequence of human ether-à-go-go-related gene (hERG) potassium channel (Q12809 whole entry, looked up): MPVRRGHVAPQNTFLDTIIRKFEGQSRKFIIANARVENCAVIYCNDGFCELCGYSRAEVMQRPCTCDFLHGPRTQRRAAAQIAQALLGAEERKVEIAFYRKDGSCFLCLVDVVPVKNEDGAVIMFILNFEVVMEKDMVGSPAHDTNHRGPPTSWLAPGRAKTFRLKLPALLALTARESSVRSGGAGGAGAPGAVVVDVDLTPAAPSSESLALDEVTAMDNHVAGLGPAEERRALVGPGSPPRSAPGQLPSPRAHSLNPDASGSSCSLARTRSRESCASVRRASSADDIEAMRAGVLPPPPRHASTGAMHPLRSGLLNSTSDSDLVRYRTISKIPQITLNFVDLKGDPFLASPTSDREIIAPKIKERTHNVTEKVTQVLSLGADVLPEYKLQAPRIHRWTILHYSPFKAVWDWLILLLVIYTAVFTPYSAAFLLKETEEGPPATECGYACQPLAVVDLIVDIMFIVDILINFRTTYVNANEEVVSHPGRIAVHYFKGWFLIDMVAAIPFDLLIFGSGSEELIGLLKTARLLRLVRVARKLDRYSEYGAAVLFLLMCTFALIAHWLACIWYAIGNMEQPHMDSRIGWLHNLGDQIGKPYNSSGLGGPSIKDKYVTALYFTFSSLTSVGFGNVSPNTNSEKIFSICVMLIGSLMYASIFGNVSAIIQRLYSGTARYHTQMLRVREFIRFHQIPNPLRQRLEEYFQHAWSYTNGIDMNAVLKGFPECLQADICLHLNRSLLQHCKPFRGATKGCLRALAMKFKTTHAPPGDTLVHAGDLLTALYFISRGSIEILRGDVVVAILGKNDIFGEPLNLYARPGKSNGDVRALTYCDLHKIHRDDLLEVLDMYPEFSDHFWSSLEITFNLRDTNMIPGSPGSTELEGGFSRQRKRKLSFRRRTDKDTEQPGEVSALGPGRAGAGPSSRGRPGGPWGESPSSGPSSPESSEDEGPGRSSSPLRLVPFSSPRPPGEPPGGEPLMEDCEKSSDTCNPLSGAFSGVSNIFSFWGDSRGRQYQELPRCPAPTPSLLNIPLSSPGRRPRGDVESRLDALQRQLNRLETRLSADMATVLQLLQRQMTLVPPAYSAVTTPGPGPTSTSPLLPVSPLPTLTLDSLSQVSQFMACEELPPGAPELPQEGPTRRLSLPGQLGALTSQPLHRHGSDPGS

First: Cc1ccc(C(=O)COC(=O)CCN2C(=O)C3C4CC(C(Br)C4Br)C3C2=O)cc1 (centres unmarked)
Second: O=C1C2C3C=CC(C3)C2C(=O)N1c1cccc2ccccc12 (centres unmarked)
The “hERG current change (%, negative = inhibition) at 1uM” value of the first is lower: 8.98% for the first, 16.2% for the second.

Going from `CCOC(=O)c1ccc(NC(=O)N2CC3CC(C2)c2cccc(=O)n2C3)cc1` (centres unmarked) to `Cc1ccc(NC(=O)CCC(C(=O)O)N2C(=O)c3ccccc3C2=O)cc1` (centres unmarked), the “hERG current change (%, negative = inhibition) at 1uM” value falls from 15.3% to -5.52%.

Compared with `CC(C)c1nc(NCCN2CCOCC2)c(C#N)c2c1COC(C)(C)C2`, `COc1ccc(S(=O)(=O)Nc2cccc(F)c2C)cc1C(=O)N1CCOCC1` is higher in “hERG current change (%, negative = inhibition) at 1uM” value: 13.3% for the first, 18.5% for the second.

Going from `CCOc1ccc(S(=O)(=O)NCCC(=O)N2CCN(c3ccccc3O)CC2)cc1` to `COc1ccc(-n2nc(C(=O)NCC(=O)N3CCN(c4ccccc4OC)CC3)c3ccccc3c2=O)c(OC)c1`, the “hERG current change (%, negative = inhibition) at 1uM” value rises from -1.88% to 8.77%.

First: CSc1ccc(CCNC(=O)CS(=O)(=O)Cc2nc(-c3ccccc3F)oc2C)cc1
Second: Cc1ccc2c(c1)N(CC(=O)NCCC1=CCCCC1)C(=O)c1cccnc1O2
The “hERG current change (%, negative = inhibition) at 1uM” value of the first is higher: 11.2% for the first, 8.18% for the second.

Compared with `CCOC(=O)/C(C#N)=C1/C=CN(C)C=N1`, `CCOC(=O)CSc1nc(C)cc(C)n1` is higher in “hERG current change (%, negative = inhibition) at 1uM” value: 8.2% for the first, 9.72% for the second.

Going from `Cn1nc(C(=O)NC2CCC(O)CC2)c2ccccc2c1=O` (centres unmarked) to `O=C(c1nn(Cc2ccccc2)c(=O)c2ccccc12)N1CCN(c2ccccn2)CC1`, the “hERG current change (%, negative = inhibition) at 1uM” value falls from 16% to -14.5%.

First: COC(=O)CCC(=O)OC1(C)C(=O)C=C2C=C(C3CC3)N(Cc3ccc(OC)cc3)C=C2C1=O (centres unmarked)
Second: COc1ccc(CNC(=O)CN(C(=O)c2snc(C(N)=O)c2N)c2ccc(OC)c(OC)c2)cc1
The “hERG current change (%, negative = inhibition) at 1uM” value of the first is higher: 16.6% for the first, 6.47% for the second.

First: O=c1[nH]cnc2c1ncn2[C@@H]1C[C@@H](O)[C@H](CO)O1
Second: CCC(c1nnnn1CC1CCCO1)N(CCCO)Cc1cc2cccc(C)c2[nH]c1=O (centres unmarked)
The “hERG current change (%, negative = inhibition) at 1uM” value of the first is higher: 15.9% for the first, 0.497% for the second.

First: COc1cccc(C(=O)Nc2ccc3c(cc2=O)[C@@H](NC(C)=O)CCc2cc(OC)c(OC)c(OC)c2-3)c1
Second: CC(=O)NCCc1nc2cc(NC(=O)c3ccccc3)ccc2n1C
The “hERG current change (%, negative = inhibition) at 1uM” value of the first is higher: 10.2% for the first, -1.25% for the second.

First: O=C(c1ccccc1)c1cccc(NC(=O)C2CC2)c1
Second: O=S(=O)(Cc1ccccc1)N1CCc2ccccc21
The “hERG current change (%, negative = inhibition) at 1uM” value of the first is higher: 12.7% for the first, -6.02% for the second.

First: CCOC(=O)N1CCN(C(=O)c2ccc3c(=O)n(CCc4ccccc4)c(=O)[nH]c3c2)CC1
Second: CCOC(=O)c1cc2c(ccn2C)n1CC(=O)N1CCN(c2cccc(C(F)(F)F)c2)CC1
The “hERG current change (%, negative = inhibition) at 1uM” value of the first is higher: 14.2% for the first, 5.6% for the second.

Compared with `COc1c(N)c2ccccc2[nH]c1=O`, `Cc1ccc(CNc2c(C=O)c(=O)[nH]c3ccccc23)cc1` is higher in “hERG current change (%, negative = inhibition) at 1uM” value: -0.187% for the first, 8.25% for the second.

Compared with `CC(C)(C)c1cccc(C2(O)C(=O)c3ccccc3C2=O)c1O`, `COc1ccc(C2CC(=O)c3ccccc3O2)cc1` (centres unmarked) is lower in “hERG current change (%, negative = inhibition) at 1uM” value: 12.8% for the first, 11.5% for the second.

First: O=C(COc1ccccc1)Nc1nnc(-c2ccco2)o1
Second: COc1ccc(NCC(=O)N/N=C/C=C\c2ccccc2)cc1
The “hERG current change (%, negative = inhibition) at 1uM” value of the first is higher: 4.72% for the first, 4.6% for the second.

Compared with `COc1ccc(C(C(=O)NCC2CCCO2)N(Cc2ccccc2)C(=O)CNC(=O)c2ccco2)cc1OC` (centres unmarked), `COc1ccc(C(=O)C2CCCN(C(=O)c3ccnn3C)C2)cc1OC` (centres unmarked) is higher in “hERG current change (%, negative = inhibition) at 1uM” value: 8.02% for the first, 14.6% for the second.

Compared with `CCOc1ccccc1CN1CCNC(=O)C1CC(=O)N(C)Cc1cnccn1` (centres unmarked), `CN(C(=O)Cn1nnc(-c2ccccc2)n1)C1CCS(=O)(=O)C1` (centres unmarked) is lower in “hERG current change (%, negative = inhibition) at 1uM” value: 17.2% for the first, 14.8% for the second.

Going from `O=C(/C=C/c1ccc(Cl)cc1)N1CCOCC1` to `O=C(CN1CCN(Cc2ccc(F)cc2)C1=O)NCc1cccs1`, the “hERG current change (%, negative = inhibition) at 1uM” value falls from 12.6% to 10.9%.

Going from `Cc1ccc2nc(Br)c3c(c2c1)OC(CBr)C3` (centres unmarked) to `Cc1cccc(Nc2nc(N)nc(CN3CCN(C)CC3)n2)c1`, the “hERG current change (%, negative = inhibition) at 1uM” value falls from 7.46% to -5.33%.

First: Nc1nnc(SCC(=O)OCC(=O)Nc2ccc(Br)cc2)s1
Second: CCCCOc1ccc(NC(=O)Nc2nnc(C)s2)cc1
The “hERG current change (%, negative = inhibition) at 1uM” value of the first is lower: 9.46% for the first, 14.8% for the second.

First: Cc1cc(C)c(S(=O)(=O)NCC2CCC(C(=O)NCCCN3CCC(C)CC3)CC2)c(C)c1 (centres unmarked)
Second: COc1ccccc1NC(=O)C(C)OC(=O)CC1CCCC1 (centres unmarked)
The “hERG current change (%, negative = inhibition) at 1uM” value of the first is lower: -52.9% for the first, 3.89% for the second.

Compared with `Cc1cc(C(=O)N/N=C/c2c3ccccc3cc3ccccc23)n[nH]1`, `Cc1[nH]c2ccccc2c1C(=O)COC(=O)Cn1cnc2ccccc21` is lower in “hERG current change (%, negative = inhibition) at 1uM” value: 10.6% for the first, 5.78% for the second.

First: CCCOC(=O)c1ccc(Cl)c(NC(=O)c2cccnc2)c1
Second: C/C(=N\OC(=O)c1ccc(OC(C)C)cc1)c1ccc(C)c(C)c1
The “hERG current change (%, negative = inhibition) at 1uM” value of the first is lower: -2.24% for the first, 4.2% for the second.

Compared with `Cc1snc(S(=O)(=O)Cc2c(Cl)cccc2Cl)c1C#N`, `CN(C)S(=O)(=O)c1ccc(C(=O)N2CCN=C2SCc2ccccc2)cc1` is higher in “hERG current change (%, negative = inhibition) at 1uM” value: 3.68% for the first, 18.6% for the second.

First: COc1ccc(-c2noc3c2-c2nc(-c4ccccc4C)sc2CC3)cc1
Second: COc1ccc(NS(=O)(=O)c2cccc(-c3n[nH]c(=S)n3Cc3ccccc3)c2)cc1
The “hERG current change (%, negative = inhibition) at 1uM” value of the first is lower: 15.4% for the first, 24.5% for the second.

Compared with `O=C(O)CCC(NC(=O)OCc1ccccc1)C(=O)O` (centres unmarked), `Nc1ncnc2nc(SCC(=O)Nc3ccccc3F)[nH]c12` is lower in “hERG current change (%, negative = inhibition) at 1uM” value: 12% for the first, 7.53% for the second.

First: COc1cccc(N2CCN(c3ncccn3)CC2)c1
Second: CCc1ccc(N/C(=N/c2nc(C)cc(C)n2)NC(C)=O)cc1
The “hERG current change (%, negative = inhibition) at 1uM” value of the first is higher: 17.9% for the first, -12.8% for the second.

Going from `O=C(N/N=C/c1cc(Br)cc([N+](=O)[O-])c1O)c1ccc(NC(=O)c2ccc(F)cc2)cc1` to `Cc1ccc(NC(=O)OCC(F)(F)C(F)F)cc1NC(=O)OCC(F)(F)C(F)F`, the “hERG current change (%, negative = inhibition) at 1uM” value falls from 12.4% to -10.8%.
